The source gives no read counts; variants with many changes may rest on few reads.
B1: LINE1-mini (parent)
chain: GGCAGAGCUCAACACAGCGUGGCAAAGUGGCUGUGGCUAGACUGCC

Variants of: B1
Assay: self-cleavage, relative activity (ratio to wild type); higher = more cleavage; in vitro, sequencing; the parent is a self-cleaving ribozyme

Variant	self-cleavage
GGCAGAACUCAACACAGCGUGGAAAAGUGGGUGUGGCUAGACUGCA	0.04
GGCAGAACUCAACACAGCGUGGCAAAGUGCCUGUGGCUAGACUGCU	0.11
GGCAGAACUCAACACAGCGUGGCAAAAUGGAUGUGGCUAGACUGCC	0.09
GGCAGAACUCAACAGAGCGUGGCAAAGAGGCUCUGGCUAGACUGCC	0.05
GGCAGAACUCAACACAGCGUAGCAAAGAGGCUGUGGCAAGACUGCC	0.05
GGCAGAACUCAACACAGCCUGGCAAAGUGGCUGUGGCUGGACUGCC	0.02
GGCAGAACUCAACACAGCGUGGCAAAGUGGCUAUGGCUAGAAUGCC	0.18
GGCAGAACUCAACACAGCGUGGCAAAGUGGUUGUGGCUAGUCUGCC	0.07
GGCAGAACUCAACACAGUGUUGCAAAGUGGCUGCGGCAAGACUGCC	0.11
GGCAGAACUCAACACAGCAUGGCAAAGCGGCUAUGGCAAGACUACC	0.2
GGCAGAACUCAACACAACGUGGCAAAGUGCCUGUGGCUCGACUGCC	0.15
GGCAGAACUCAACACAGCGUCGCAAAGUGGCUAGGGUUAGACUGCC	0.03
GGCAGAACUCAACACAGCGUGUCAAAGUGGCUGUGGCUAGACUCCC	0.34
GGCAGAACUCAACACACCGUGGGAAAGUGGCUGUCGCUAUACUGCC	0.19
GGCAGAACUCAACACAGCGUGGAAAAGUGCCUGUGGCUAGACUGCC	0.2
GGCAGAACUCAACACAGCGUUGCAAAGUGUCUGUGGGAAGCCUGCC	0.12
GGCAGAACUCAACACACCGUGGCAAAGUGGCUGUGGCUAUACUGCC	0.32
GGCAGAACUCAACACACCGUGGCAAAGUGGCUGUGCCUAGACUGCC	0.13
GGCAGAACUCAACACAGCGUGGUAAAGUGGCUGUGGCUAGACGGGC	0.02

Variant	self-cleavage
GGCAGAACUCAACACAGCGUGGCAAAGUAGCUGUGGCUAGAGUGCC	0
GGCAGAACUCAACACAGCGUGACAAAGUGGCUGUGGGUAGGCUGCG	0.01
GGCAGAACUCAACACAGCGUGCCUAAGUGGCGGUGGCUAGACUGCC	0.05
GGCAGAACUCAACACAGCGUGGAAAAGAAGCUGUGCCUAGACUGCC	0.13
GGCAGAACUCAACACAGCUUGGCAAAGUGGCUGUGGCUAGACUCAC	0.03
GGCAGAACUCAACAAAGCGUGGCAAAGUGGCGGUGGCUAGACUGCC	0.05
GGCAGAACUCAACACAGCGUAGCAAAGUGGCUGUGGCUAGAUUGCC	0.17
GGCAGAACUCAACACAUCGUGUCAAAGUGGCUGUGGCUAGACUGCC	0.02
GGCAGAACUCAACACAGUGUGGCAAAGUGGCUGUGGCUAGACUGCG	0.15
GGCAGAACUCAACACAGCGUGGGAAAAUGGCUGUGGCUAGACUGCC	0.04
GGCAGAACUCAACACAGUCUGGCAAAGUGGCUGUGGCUAGACUGCC	0.06
GGCAGAACUCAACAUACCGUGGCAAAGUGGCUUUGGCUAGAAUGUC	0.06
GGCAGAACUCAACACAGCGUGGCAAAGUGUGUGUGGCUAGACAGCC	0.11
GGCAGAACUCAACACAGCGUGGAAAAAUGGCUGUGGCAAGAAGGCC	0.01
GGCAGAACUCAACACAGCGUGGUAAAGUGGCUGUGGCGAGACUGCC	0.01
GGCAGAACUCAACACAGUGUGGCAAAGUGGCUGUGGCUAGACUGAC	0.12
GGCAGAACUCAACACAGAGUGGCAAAGUGGCUGUGGCUAAACUGCC	0.01
GGCAGAACUCAACACAGCGUGGCAAAGUAGCUCUGGCUAGACUGCC	0.05
GGCAGAACUCAACAAAGCGAGGCAAAGUGGCUGUGGCUAGACUAAC	0.02

Variant	self-cleavage
GGCAGAACUCAACACAGCCUGGCAAAGUGACUGUGGCUAGACUGCC	0.05
GGCAGAACUCAACAUAGCGUGGCAAAGUGGCUGUGGCUCGACUGCC	0.58
GGCAGAACUCAACACAGCGUAGCAAAGUGGCUGUGGCAAGACUGCC	0.09
GGCAGAACUCAACACAGCGUGUCAAAGUGCCUGUGGCUAGACUGCC	0.13
GGCAGAACUCAACACAGCGUGGGAAAGUGGCUGUGGCUAGGCAGAC	0.18
GGCAGAACUCAACACAGCGUGGCAAAGUGUCUGUGUCUAGACUGCC	0.6
GGCAGAACUCAACACAGCGUGGCAAAGUGGCUAUGCCUAGACUGCC	0.13
GGCAGAACUCAACACAGCGUGGGAAAGUGGCUGUGGCGAGAUUGCC	0.06
GGCAGAACUCAACACAACAUGGCAAAGUGGCUGUGGCUAGACUGCC	0.21
GGCAGAACUCAACACAGCGUGGAAAAGUGGCUGUGGCUAGACUGAC	0.05
GGCAGAACUCAACACAGCGUCGCAAAUUUGCUGUGGCUACACUACC	0.02
GGCAGAACUCAACAAAGAGUGGCAAAGUGGCUGUGGCUAGACUGCC	0.18
GGCAGAACUCAAUACAGCGCGGCAAAGUGGCUGUGGCUAGACUGCC	0.2
GGCAGAACUCAACACAGCGUGGCAAAGUCGCUGUGGCUAGGCUGCC	0.01
GGCAGAACUCAACACAGCGUGGAAAAGUGGCUGUGGCUAGACUGCG	0.05
GGCAGAACUCAACACAGCGUGGUAAAAUGGCUGUGGCUAGACUGCC	1.13
GGCAGAACUCAACACAGUGGGGCAAAGUGGCUGUGGCUAGACUGCC	0.28
GGCAGAACUCAACACAGCGUAGUAAAGUGGCCGUGGCUAGACUGCC	0.07

Reference: the RNAGym collection of RNA variant scans (doi:10.7554/elife.90254)
